Measured values published in publication PMC7320043.
No constants are given. Whether binding was seen depends on the method and setting. For part of these data: In cells and extracts the contact can be indirect. Some binding calls cover weakened binding; strength is not graded here. Each block holds one substance with its values, some of them ahead of it.

Amino acid sequences for entries named in this document (tags omitted). A change or cut given only in a name is not applied to a line headed by its entry. Chains listed by the source or under a name are the forms on record and can include a tag or linker. Residues count along the entry.
UniProt Q13309: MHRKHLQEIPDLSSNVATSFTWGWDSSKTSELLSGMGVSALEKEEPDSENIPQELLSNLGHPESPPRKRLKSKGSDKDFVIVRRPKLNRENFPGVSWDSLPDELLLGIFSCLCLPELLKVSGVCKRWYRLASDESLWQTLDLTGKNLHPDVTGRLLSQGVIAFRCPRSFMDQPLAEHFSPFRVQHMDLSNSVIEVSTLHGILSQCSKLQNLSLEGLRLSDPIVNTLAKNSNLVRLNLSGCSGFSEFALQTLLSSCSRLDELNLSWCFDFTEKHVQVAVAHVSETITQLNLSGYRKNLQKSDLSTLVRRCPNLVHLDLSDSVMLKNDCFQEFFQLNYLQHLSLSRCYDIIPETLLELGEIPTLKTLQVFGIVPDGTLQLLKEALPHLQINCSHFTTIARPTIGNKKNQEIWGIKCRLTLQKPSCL
UniProt P67870: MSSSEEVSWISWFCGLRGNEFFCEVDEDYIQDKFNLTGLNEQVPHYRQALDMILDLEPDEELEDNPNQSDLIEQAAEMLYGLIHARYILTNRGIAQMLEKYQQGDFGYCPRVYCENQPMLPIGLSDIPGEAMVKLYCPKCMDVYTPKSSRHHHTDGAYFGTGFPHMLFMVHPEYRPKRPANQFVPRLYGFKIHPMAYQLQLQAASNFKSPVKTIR
UniProt O60244, residues 1053-1282: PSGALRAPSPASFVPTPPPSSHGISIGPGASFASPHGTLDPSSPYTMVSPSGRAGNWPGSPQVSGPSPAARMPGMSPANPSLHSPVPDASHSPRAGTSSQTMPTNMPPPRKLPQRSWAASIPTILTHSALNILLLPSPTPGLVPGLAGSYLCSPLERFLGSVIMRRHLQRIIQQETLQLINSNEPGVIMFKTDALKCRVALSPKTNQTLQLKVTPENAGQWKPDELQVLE
UniProt P29144, residues 879-1141: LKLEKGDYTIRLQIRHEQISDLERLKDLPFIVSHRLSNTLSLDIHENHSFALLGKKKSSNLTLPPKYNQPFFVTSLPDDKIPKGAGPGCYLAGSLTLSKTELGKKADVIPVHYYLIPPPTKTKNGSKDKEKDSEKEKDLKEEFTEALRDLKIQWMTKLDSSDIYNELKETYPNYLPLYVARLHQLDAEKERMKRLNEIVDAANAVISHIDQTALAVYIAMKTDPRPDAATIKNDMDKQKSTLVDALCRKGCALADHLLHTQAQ
in vitro transcribed and translated Uap1 (Q16222-2, form named): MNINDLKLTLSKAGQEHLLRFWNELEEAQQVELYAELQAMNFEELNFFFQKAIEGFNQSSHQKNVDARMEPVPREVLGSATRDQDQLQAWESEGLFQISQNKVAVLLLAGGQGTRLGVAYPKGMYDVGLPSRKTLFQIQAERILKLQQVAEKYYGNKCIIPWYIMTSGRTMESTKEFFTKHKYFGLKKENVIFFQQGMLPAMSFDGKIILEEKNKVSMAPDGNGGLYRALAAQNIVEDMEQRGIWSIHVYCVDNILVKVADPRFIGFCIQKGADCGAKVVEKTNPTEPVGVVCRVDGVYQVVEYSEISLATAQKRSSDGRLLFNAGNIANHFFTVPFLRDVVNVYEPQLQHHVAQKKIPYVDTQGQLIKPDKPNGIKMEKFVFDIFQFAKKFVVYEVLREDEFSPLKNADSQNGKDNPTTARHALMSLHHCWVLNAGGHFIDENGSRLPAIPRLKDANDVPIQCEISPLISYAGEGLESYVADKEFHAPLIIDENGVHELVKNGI
UniProt Q9Y3C8: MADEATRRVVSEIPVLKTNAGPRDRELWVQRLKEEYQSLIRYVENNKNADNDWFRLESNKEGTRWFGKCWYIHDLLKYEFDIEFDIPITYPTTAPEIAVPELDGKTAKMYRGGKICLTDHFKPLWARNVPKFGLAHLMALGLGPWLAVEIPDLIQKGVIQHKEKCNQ
UniProt Q9GZX5, residues 310-532: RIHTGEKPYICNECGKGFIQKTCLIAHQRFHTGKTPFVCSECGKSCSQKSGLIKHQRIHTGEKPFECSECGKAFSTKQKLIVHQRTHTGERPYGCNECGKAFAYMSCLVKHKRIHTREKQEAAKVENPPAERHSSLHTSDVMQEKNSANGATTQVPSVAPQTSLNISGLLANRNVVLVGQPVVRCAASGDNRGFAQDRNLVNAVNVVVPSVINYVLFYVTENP
UniProt P63208: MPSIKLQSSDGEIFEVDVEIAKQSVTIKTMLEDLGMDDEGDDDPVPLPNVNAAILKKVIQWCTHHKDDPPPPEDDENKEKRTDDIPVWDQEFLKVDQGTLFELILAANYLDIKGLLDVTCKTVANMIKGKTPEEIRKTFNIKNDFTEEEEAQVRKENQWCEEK
UniProt Q9UHP3, residues 323-450: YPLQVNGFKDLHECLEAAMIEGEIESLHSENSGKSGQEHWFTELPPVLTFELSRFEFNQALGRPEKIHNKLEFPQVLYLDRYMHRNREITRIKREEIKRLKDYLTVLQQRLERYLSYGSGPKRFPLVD

How the values were obtained:
[1] = target: Fbxl17 two-hybrid bait, FBD and LRRs (321-701aa) (human) (UniProt Q9UF56); assay: two-hybrid; Matchmaker Gold system (Clontech); bait Fbxl17 aa 321 to 701 in pGBKT7; screen of a normalized universal human cDNA library (Mate & Plate) with prey fused to the Gal4 activation domain
[2] = target: FLAG-Fbxl17 (full-length Fbxl17, 1-701aa) (human) (UniProt Q9UF56); assay: co-IP; HEK293T cells expressing FLAG-Fbxl17 constructs; immunoprecipitates using anti-FLAG beads probed for endogenous Klhl12 or for co-expressed HA-tagged Uap1, Ufc1 or Csnk2B with anti-HA antibody
[3] = target: FLAG-Fbxl17∆10LRR (1-384aa) (human) (UniProt Q9UF56); assay: as above
[4] = target: FLAG-Fbxl17∆3LRR (1-586aa) (human) (UniProt Q9UF56); assay: as above
[5] = target: FLAG-Fbxl17ΔFbox (Δ324-358aa) (human) (UniProt Q9UF56); assay: as above
[6] = target: FLAG-Fbxl17 (full-length Fbxl17, 1-701aa) (human) (UniProt Q9UF56); assay: co-IP; HEK293T cells co-transfected with Skp1, Cullin1, Rbx1 and N-terminally FLAG-tagged Fbxl17 constructs; 48 h post transfection lysed, immunoprecipitated with FLAG antibodies, blotted for the associated SCF subunits; binding quantified relative to WT Fbxl17
[7] = target: FLAG-Fbxl17ΔFbox (Δ324-358aa) (human) (UniProt Q9UF56); assay: as above
[8] = target: GST-Fbxl17(321-701aa) (human) (UniProt Q9UF56); assay: pull-down; bacterially expressed and purified GST proteins immobilised on a GST column, incubated with in vitro transcribed and translated Uap1 (rabbit reticulocyte lysate); SDS-PAGE, membranes probed with antibodies to Uap1; only the target purified
[9] = target: GST-Fbxl17Δ10LRR(321-383aa) (human) (UniProt Q9UF56); assay: as above
GST-Skp2 = GST-Skp2 (UniProt Q13309); assay: as above

binding [1]: binds
Substance: Casein kinase 2, beta polypeptide, two-hybrid prey (from UniProt P67870 1-123) (domain or fragment)

binding [1]: binds
Substance: ClpX caseinolytic peptidase × homolog (E. coli), two-hybrid prey (from UniProt O76031 42-341) (domain or fragment)

binding [1]: binds
Substance: Mediator complex subunit 14, two-hybrid prey (from UniProt O60244 1053-1282) (domain or fragment)

binding [1]: binds
Substance: Tripeptidyl peptidase II, two-hybrid prey (from UniProt P29144 879-1141) (domain or fragment)

binding [1]: binds
Substance: UDP-N-acetylglucosamine pyrophosphorylase 1, two-hybrid prey (from UniProt Q16222-2 357-505) (domain or fragment)

binding [1]: binds
Substance: Ubiquitin-fold modifier conjugating enzyme 1, two-hybrid prey (from UniProt Q9Y3C8 12-95) (domain or fragment)

binding [1]: binds
Substance: Zinc finger protein 350, two-hybrid prey (from UniProt Q9GZX5 310-532) (domain or fragment)

binding [8]: binds
binding [9]: no binding
binding (GST-Skp2): no binding
Substance: in vitro transcribed and translated Uap1 (from UniProt Q16222-2 1-505) (enzyme)

More lines, now with the values behind:

Substance: HA-Csnk2B (from UniProt P67870 1-215)
binding [2]: binds
binding [3]: binds
binding [4]: binds

Substance: HA-tagged Uap1 (from UniProt Q16222-2 1-505) (enzyme)
binding [2]: binds
binding [5]: binds
binding [3]: no binding
binding [4]: binds

Substance: HA-tagged Ufc1 (from UniProt Q9Y3C8 1-167) (enzyme)
binding [2]: binds
binding [3]: no binding
binding [4]: binds

Substance: Protein phosphatase 3, catalytic subunit, beta isozyme, two-hybrid prey (from UniProt P16298 381-496) (domain or fragment)
binding [1]: binds

Substance: Skp1 (from UniProt P63208 1-163)
binding [6]: binds
binding [7]: no binding

Substance: Ubiquitin specific peptidase 25, two-hybrid prey (from UniProt Q9UHP3 323-450) (domain or fragment)
binding [1]: binds
